# In PubChem BioAssay AID624296 (National Center for Advancing Translational Sciences (NCATS), 2012):
# Among all 350,000 compounds or so, about 9,900 (2.8%) were called active. Inconclusive means that the source gave no clear call. Such entries were picked first, then a sample of the others. Calls come from the whole dose curve; as a rule, active = well fitted activation curve with a large enough effect; inconclusive = small, poorly fitted or top-dose-only effect; inactive = no such curve, though single readings can be large or run the other way. No potency is given beside an inconclusive call; the fits are too rough.
# Assay: A quantitative high throughput screen for small molecules that induce DNA re-replication in MCF 10a normal breast cells. Note: nearly all actives have a fitted effect of over 50% in size.
# Details: MCF 10A DNA re-replication, Hoechst nuclear intensity, 48 h; series mostly up to 46.1 µM
# Potency is the fitted concentration of half-maximal effect; tags give direction and shape of the fitted curve.
row,SMILES,Potency
1,CC(C)C(=O)Nc1nnc(-c2ccccc2)o1,inactive
2,O=C(c1ccc2nc(-c3ccccc3)c(-c3ccccc3)nc2c1)N1CCCCC1,"inconclusive [activator, full curve, poor fit]"
3,O=C(Nc1ccc(C(=O)N2CCOCC2)cc1)Nc1cccc(Cl)c1,"inconclusive [activator, partial curve, poor fit]"
4,CCOC(=O)C1=C(CCc2ccccc2)NC(=O)NC1c1ccc(Br)cc1 (configuration not stated),"inconclusive [activator, single point]"
5,COc1ccc(N(CC2CO2)S(=O)(=O)c2ccc(C)cc2)cc1 (configuration not stated),inactive
6,Cn1nnc2c[n+](CC(=O)c3ccc4ccccc4c3)cc(Br)c21,"inconclusive [activator, single point]"
7,Cc1nc(C2CCCCC2)c(-c2ccccc2)c(N2CCOC2=O)c1C,"inconclusive [activator, full curve, poor fit]"
8,CCc1noc(C)c1C(=O)NNC(=O)c1nn(C)c(=O)c2ccccc12,inactive
9,Cc1ccc(-c2nc(CS(=O)(=O)CC(=O)NC3CCCCCC3)c(C)o2)cc1,"inconclusive [activator, single point]"
10,COCC1=C(C(=O)OC)C(c2cccs2)n2ncnc2N1 (configuration not stated),"inconclusive [activator, full curve, poor fit]"
11,COc1ccc(Cc2nc3ccccc3n2CC(=O)N/N=C/c2ccccc2)cc1OC,"inconclusive [activator, single point]"
12,COc1cc(/C=N/NC(=O)C2CCN(CC(O)COCc3ccccc3)CC2)ccc1O (configuration not stated),inactive
13,CC(C)(C)n1nc2c(c1NC(=O)c1ccc(S(=O)(=O)N3CCCCC3)cc1)CS(=O)C2 (configuration not stated),"inconclusive [activator, partial curve, poor fit]"
14,O=C(Cn1cc(/C=N/NC(=O)c2cccc3ccccc23)c2ccccc21)Nc1ccc(F)cc1,"inconclusive [activator, partial curve, poor fit]"
15,COc1ccc(-c2cc(C(=O)OCC(=O)c3cccc([N+](=O)[O-])c3)c3cc(C)ccc3n2)cc1,active: 18.4 µM
16,C=C1C(=O)[C@@]23[C@H](O)C[C@@H]4C(C)(C)CC[C@H](O)[C@@]4(C)[C@@H]2CC[C@@H]1[C@H]3O,active: 0.517 µM
17,O=S(=O)(c1ccc(Cl)c(NC(=S)N/N=C/c2c(F)cccc2F)c1)N1CCOCC1,"inconclusive [activator, single point]"
18,CN(CC(=O)Nc1ccc(Cl)c(C(F)(F)F)c1)C(=O)CCCNC(=O)c1ccc(Cl)cc1,"inconclusive [activator, partial curve, poor fit]"
19,CCOc1cc(/C=N/N=C(\N)c2nonc2N)cc(Br)c1OCc1cccc2ccccc12,"inconclusive [activator, full curve]"
20,O=[N+]([O-])c1ccc(Cl)c(S(=O)(=O)/N=C(/c2ccccc2)N2CCOCC2)c1,inactive
21,Cc1cc(C(=O)N/N=C/c2cc(Br)ccc2OC(=O)c2ccccc2Cl)n[nH]1,"inconclusive [activator, partial curve, poor fit]"
22,Cc1ccsc1/C=N/Nc1nc(Cl)c(Cl)cc1Cl,"inconclusive [activator, single point]"
23,CN(C)C=Nc1ncc2c3ccccc3n(Cc3ccccc3)c2c1C#N,"inconclusive [activator, full curve, poor fit]"

row,SMILES,Potency
1,COc1ccc(C2CC(c3ccccc3F)=NN2c2ccc(S(N)(=O)=O)cc2)cc1 (configuration not stated),active: 2.06 µM
2,CC(C)C[C@@H](CNCC(=O)[C@H](CC(C)C)NC(=O)c1[nH]cnc1C(=O)N[C@H](CN)CC(C)C)NC(=O)c1nc[nH]c1C(=O)N[C@@H](CC(=O)O)C(=O)O,"inconclusive [activator, partial curve, poor fit]"
3,COc1ccc(Cc2nnc(Nc3ccc4c(c3)OCCO4)[nH]c2=O)cc1,inactive
4,CCc1ccc(NC(=O)CSc2nc3n[nH]c(C)c3c(=N)n2-c2cccc(OC)c2)cc1,"inconclusive [activator, partial curve, poor fit]"
5,O=C(NCCCn1ccnc1)c1ccc(S(=O)(=O)N2CCOCC2)cc1,"inconclusive [activator, partial curve, poor fit]"
6,Cc1ccc(C)c(Cn2nc(-c3cc(C)ccc3C)ccc2=O)c1,"inconclusive [activator, single point]"
7,Cc1ccccc1OCC(O)CN(CCO)Cc1ccccc1 (configuration not stated),inactive
8,CC(C)(C)c1nc(CN2CCOCC2)cc(CN2CCOCC2)c1O,inactive
9,CCC(C)(C)n1nnnc1C(c1cccc(C#N)c1)N1CCN(c2cccc(C)c2C)CC1 (configuration not stated),inactive
10,CC(C)c1ccc2oc(=O)cc(CN3CCOCC3)c2c1,"inconclusive [activator, full curve, poor fit]"
11,C#CCn1c(=NC(=O)c2cccs2)sc2cccc(OC)c21,"inconclusive [activator, single point]"
12,Cc1cccc(Nc2nc(NCCO)nc(N3CCCC3)n2)c1,"inconclusive [activator, single point]"
13,Cc1cccc2cc3c(NC(=O)C(C)(C)C)nn(CC(C)C)c3nc12,"inconclusive [activator, partial curve, poor fit]"
14,CC(=O)c1c(C)[nH]c(C(=O)Nc2ccccc2Cl)c1C,"inconclusive [activator, partial curve, poor fit]"
15,Cc1ccc(S(=O)(=O)Nc2ccccc2/C=N/c2nc3ccccc3n2C(C)C)cc1,active: 20.6 µM
16,COc1cc(OC)c(OC)cc1/C=N/N(C)c1ccccc1,inactive
17,COc1ccc(OC)c2c1C(=O)C(Cl)=C(Cl)C2=O,active: 2.59 µM
18,COCc1cc(C)nc2sc(C(=O)Nc3ccccc3C)c(N)c12,"inconclusive [activator, partial curve, poor fit]"
19,COc1ccc(-c2cc(C(=O)N3CCN(c4ccccc4OC)CC3)no2)cc1OC,"inconclusive [activator, partial curve, poor fit]"
20,COc1ccc(C(=O)NC(=S)Nc2cccnc2)cc1OC,inactive
21,O=c1c(Cl)c(Cl)cnn1Cc1nnc(-c2ccc(Cl)cc2)o1,active: 5.8 µM
22,COc1cccc(C(=O)N/N=C/C(Br)=C/c2ccccc2)c1,active: 8.2 µM
23,Cc1nc2sc(C(c3ccco3)N3CCN(c4ccccc4)CC3)c(O)n2n1 (configuration not stated),inactive

row,SMILES,Potency
1,CCOC(=O)C1(Cc2ccccc2C(F)(F)F)CCN(C2CCCC2)CC1,"inconclusive [activator, partial curve, poor fit]"
2,COC(=O)C(C)SC1=N/C(=C/c2ccc(-n3cncn3)cc2)C(=O)N1 (configuration not stated),active: 16.4 µM
3,CCOC(=O)C1CCN(c2ncnc3c2c(-c2ccccc2)cn3-c2ccccc2)CC1,"inconclusive [activator, partial curve]"
4,CN(C)C(=C(C#N)C#N)N1CCN(c2ccc(Cl)cc2)CC1,"inconclusive [activator, full curve, poor fit]"
5,Cc1ccc(S(=O)(=O)Nc2c(C)n(C)n(-c3ccccc3)c2=O)c(C)c1,inactive
6,CCC(=O)N(C1=C(NC)C(=O)c2ccccc2C1=O)C(C)C,active: 5.8 µM
7,COc1ccc(C(=O)Nc2ccc(C3(C#N)CCCC3)cc2)cc1OC,active: 20.6 µM
8,Cc1cccc(NC(=O)c2nc[nH]c2C(=O)N[C@@H](Cc2ccccc2)C(=O)OC(C)(C)C)c1,active: 3.66 µM
9,CCOC(=O)CN1C(=O)/C(=C/c2ccccc2Br)Oc2ccccc21,"inconclusive [activator, full curve]"
10,CCOc1ccc(-c2ccc(SCc3ccccn3)nn2)cc1,"inconclusive [activator, partial curve, poor fit]"
11,C=CCn1c(SCc2nc3sc4c(c3c(=O)[nH]2)CCCC4)nc2ccccc2c1=O,active: 10.3 µM
12,CC1CCN(C2=NN3C(=N)/C(=C\c4ccc(OC(=O)c5ccco5)cc4)C(=O)N=C3S2)CC1,"inconclusive [activator, partial curve, poor fit]"
13,COc1ccc(NC(=O)/C=C/c2ccccc2)c([N+](=O)[O-])c1,"inconclusive [activator, single point]"
14,Cc1cc(C(=O)CSc2nnc(-c3cccs3)o2)c(C)n1-c1ccccc1,"inconclusive [activator, single point]"
15,Cc1ccc(C)c(S(=O)(=O)N2CCN(C(=O)Cc3sc(C)nc3-c3ccc(F)cc3)CC2)c1,inactive
16,Cc1c(NC(=O)C2CC(c3c(F)cccc3Cl)=NO2)c(=O)n(-c2ccccc2)n1C (configuration not stated),"inconclusive [activator, single point]"
17,Cc1cc(C)n(CCCC(=O)O)n1,inactive
18,c1ccc(Cn2nnnc2C(c2ccccc2)N2CCN(c3nc4ccccc4s3)CC2)cc1 (configuration not stated),inactive
19,CCOC(=O)c1sc(N(Cc2ccccc2)C(=O)CSc2ncn[nH]2)nc1C,"inconclusive [activator, single point]"
20,COc1ccc(-c2sc3cc(OC)c(OC)cc3c2C#CC2(O)CCCCC2)cc1,"inconclusive [activator, single point]"
21,O=C(Nc1cccc(-c2nc3ccccc3o2)c1)c1ccc(N2C(=O)C3C4C=CC(C4)C3C2=O)cc1 (configuration not stated),"inconclusive [activator, full curve]"
